SMILES strings stand for the structures. Where two headings read alike, the source gives them in different places.

This is an account of results in patent publication US10308592B2 (priority 2014, dated 2019).

For this data set the following is noted: room temperature. The procedure:
The maximum solubility of two nitrogen-containing HFE-Hydrides of the present invention was determined in a commonly employed carbonate-based solvent formulation (EC:EMC 3:7 by wt) used in lithium ion battery electrolytes and a similar electrolyte formulation containing 1.0M LiPF6 (a commonly employed electrolyte salt). The solubility of these nitrogen-containing HFE-Hydrides in the two battery electrolyte formulations was compared to the solubility of Novec-7300, a commercially available segregated HFE that has been previously studied as a battery electrolyte cosolvent. […] Thus, the nitrogen-containing HFE-Hydrides of the present invention represent promising battery electrolyte cosolvents that can provide improved formulation flexibility due to their enhanced solubility in commonly used electrolyte formulations.

With `COC(F)(F)C(F)N1C(F)(F)C(F)(F)OC(F)(F)C1(F)F` (stereo not shown) [Example 1, 2,2,3,3,5,5,6,6-octafluoro-4-(1,2,2-trifluoro-2-methoxy-ethyl)morpholine], the “Solubility of HFE cosolvent (Max Wt % HFE in electrolyte)” value is, setting by setting: (1.0M LiPF6 in EC:EMC 3:7 by Wt) 22% Wt %; (EC:EMC 3:7 by Wt) greater than 40% Wt %.

Consider `FC(F)C(F)(F)COC(F)(F)C(F)N1C(F)(F)C(F)(F)OC(F)(F)C1(F)F` (stereo not shown) [Example 2, 2,2,3,3,5,5,6,6-octafluoro-4-[1,2,2-trifluoro-2-(2,2,3,3-tetrafluoropropoxy)ethyl]morpholine], for which the “Solubility of HFE cosolvent (Max Wt % HFE in electrolyte)” value was 55% Wt % (1.0M LiPF6 in EC:EMC 3:7 by Wt) and greater than 40% Wt % (EC:EMC 3:7 by Wt).
